{
  "source": "EPA's CvTdb concentration-time database",
  "key": {"Rat [1]": {"system": "Rat", "experiment": "concentration in brain after dosing", "conditions": "10 min; dosed: alpha/beta-Thujone mixture; 50 mg/kg; oral; Male; F344"}, "Rat [2]": {"system": "Rat", "experiment": "concentration in brain after dosing", "conditions": "1.5 h; dosed: alpha/beta-Thujone mixture; 50 mg/kg; oral; Male; F344"}, "Rat [3]": {"system": "Rat", "experiment": "concentration in brain after dosing", "conditions": "10 min; dosed: 76231-76-0; 3.0 mg/kg; iv; Male; F344"}, "Rat [4]": {"system": "Rat", "experiment": "concentration in brain after dosing", "conditions": "12 h; dosed: alpha/beta-Thujone mixture; 50 mg/kg; oral; Female; F344"}, "Rat [5]": {"system": "Rat", "experiment": "concentration in brain after dosing", "conditions": "0.75 h; dosed: 76231-76-0; 3.0 mg/kg; iv; Male; F344"}, "Rat [6]": {"system": "Rat", "experiment": "concentration in plasma after dosing", "conditions": "5 min; dosed: alpha/beta-Thujone mixture; 25 mg/kg; oral; Female; F344"}, "Rat [7]": {"system": "Rat", "experiment": "concentration in plasma after dosing", "conditions": "1 h; dosed: 76231-76-0; 3.0 mg/kg; iv; Female; F344"}, "Rat [8]": {"system": "Rat", "experiment": "concentration in plasma after dosing", "conditions": "1.5 h; dosed: 76231-76-0; 3.0 mg/kg; iv; Female; F344"}, "Rat [9]": {"system": "Rat", "experiment": "concentration in liver after dosing", "conditions": "6744 h; dosed: 3,3',4,4',5-pentachlorobiphenyl; 1000 mg/kg; oral; Female; Harlan Sprague Dawley"}, "Rat [10]": {"system": "Rat", "experiment": "concentration in liver after dosing", "conditions": "24 h; dosed: 3,3',4,4',5-pentachlorobiphenyl; 1000 mg/kg; oral; Female; F344"}, "Rat [11]": {"system": "Rat", "experiment": "concentration in liver after dosing", "conditions": "6744 h; dosed: 3,3',4,4',5-pentachlorobiphenyl; 1000 mg/kg; oral; Female; Harlan Sprague Dawley", "remark": "listed apart in the source"}, "Rat [12]": {"system": "Rat", "experiment": "concentration in liver after dosing", "conditions": "6000 h; dosed: 3,3',4,4',5-pentachlorobiphenyl; 1000 mg/kg; oral; Female; F344"}, "Rat [13]": {"system": "Rat", "experiment": "concentration in liver after dosing", "conditions": "5088 h; dosed: 3,3',4,4',5-pentachlorobiphenyl; 1000 mg/kg; oral; Female; F344"}, "Rat [14]": {"system": "Rat", "experiment": "concentration in liver after dosing", "conditions": "5088 h; dosed: 3,3',4,4',5-pentachlorobiphenyl; 1000 mg/kg; oral; Female; F344", "remark": "listed apart in the source"}, "Rat [15]": {"system": "Rat", "experiment": "concentration in liver after dosing", "conditions": "2880 h; dosed: 3,3',4,4',5-pentachlorobiphenyl; 1000 mg/kg; oral; Female; Harlan Sprague Dawley"}, "Rat [16]": {"system": "Rat", "experiment": "concentration in liver after dosing", "conditions": "2208 h; dosed: 3,3',4,4',5-pentachlorobiphenyl; 1000 mg/kg; oral; Female; Harlan Sprague Dawley"}, "Rat [17]": {"system": "Rat", "experiment": "concentration in liver after dosing", "conditions": "1.5 h; dosed: 3,3',4,4',5-pentachlorobiphenyl; 1000 mg/kg; oral; Female; F344"}},
  "note": "The source gives many values for each of these; only a part stands here.",
  "data": [
    {"compound": "CC(C)[C@]12CC(=O)[C@H](C)[C@H]1C2", "note": "[alpha-Thujone]", "values": [
      {"measurement": "concentration in brain", "setting": "Rat [1]", "result": 1220, "unit": "ng/g"},
      {"measurement": "concentration in brain", "setting": "Rat [2]", "result": 1520, "unit": "ng/g"},
      {"measurement": "concentration in brain", "setting": "Rat [3]", "result": 1380, "unit": "ng/g"},
      {"measurement": "concentration in brain", "setting": "Rat [4]", "result": 37.2, "unit": "ng/g"},
      {"measurement": "concentration in brain", "setting": "Rat [5]", "result": 209, "unit": "ng/g"},
      {"measurement": "concentration in plasma", "setting": "Rat [6]", "result": 552, "unit": "ng/mL"},
      {"measurement": "concentration in plasma", "setting": "Rat [7]", "result": 23, "unit": "ng/mL"},
      {"measurement": "concentration in plasma", "setting": "Rat [8]", "result": 16.2, "unit": "ng/mL"}
    ]},
    {"compound": "Clc1ccc(-c2cc(Cl)c(Cl)c(Cl)c2)cc1Cl", "note": "[3,3',4,4',5-pentachlorobiphenyl]", "values": [
      {"measurement": "concentration in liver", "setting": "Rat [9]", "result": 1040, "unit": "pg/g"},
      {"measurement": "concentration in liver", "setting": "Rat [10]", "result": 14800, "unit": "pg/g"},
      {"measurement": "concentration in liver", "setting": "Rat [11]", "result": 1130, "unit": "pg/g"},
      {"measurement": "concentration in liver", "setting": "Rat [12]", "result": 1220, "unit": "pg/g"},
      {"measurement": "concentration in liver", "setting": "Rat [13]", "result": 1880, "unit": "pg/g"},
      {"measurement": "concentration in liver", "setting": "Rat [14]", "result": 833, "unit": "pg/g"},
      {"measurement": "concentration in liver", "setting": "Rat [15]", "result": 3020, "unit": "pg/g"},
      {"measurement": "concentration in liver", "setting": "Rat [16]", "result": 4040, "unit": "pg/g"},
      {"measurement": "concentration in liver", "setting": "Rat [17]", "result": 3280, "unit": "pg/g"}
    ]}
  ]
}
